Laboratory results published in PMC12040169 (PLOS Biology, 2025).
Some of the results follow.

test system: T1, C. trachomatis L2/434/Bu expressing GFP (CTL2-GFP); set-up: species or system HeLa; C. trachomatis total inclusion area by high-content imaging, normalised to DMSO; conditions: total inclusion area; 28.5 h, 10 µM; inhibitor
T1 construct: L2/434/Bu GFP intracellular growth in HeLa cells
Summary of the method: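 Following bulk GFP and resorufin fluorescence reads, infected cells were fixed, Hoechst-stained and imaged on a high-content platform. Inclusion total area and number per well served as growth proxies; nuclei counts indicated host viability. MICs were derived as for the fluorescence assay.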

SMILES | % of control remaining
CCN1C(=O)C2(CC(=O)N(CC3CCCCC3)C2=O)c2cc(C)ccc21 (stereo not drawn) [CBK075216] | 106.198
CC(C)C1c2cccn2CCN1S(=O)(=O)c1ccc2[nH]c(=O)[nH]c(=O)c2c1 (stereo not drawn) [CBK286391] | 65.3918
O=C(Nc1cccnc1)c1cc2cc(OC(F)(F)F)ccc2[nH]1 [CBK107313] | 97.4642
O=C(c1cccs1)N1C[C@H](c2ccc(F)cc2)[C@H]2CN(Cc3ccccc3)CC[C@H]21 [CBK285544] | 46.7013
CN1CCN(c2nc(-c3ccccc3CO)cn3ccnc23)CC1 [CBK066347] | 56.5015
Cc1cc(C[C@@H]2CCC[C@H]2NCc2c(C)nn(C(C)C)c2C)on1 [CBK285453] | 77.4197
COc1ccc(F)c(CN(CC(C)(C)CN)C(=O)Nc2ccccc2C(C)(C)C)c1 [CBK002478C] | 39.729
c1ccc2c(N3CCCCC3)cnnc2c1 [CBK066897] | 73.6193
Cc1c(Cl)c(C(F)(F)F)nn1CCCNC(=S)Nc1ccc(S(N)(=O)=O)cc1 [CBK267113] | 89.7773
CCOC(=O)C1CCCN(CCC(=O)Nc2cc(C)ccc2C)C1 (stereo not drawn) [CBK264287C] | 118.698
Cc1n[nH]c(-c2ccccc2NS(=O)(=O)c2cnn(C(C)C)c2)n1 [CBK306377] | 80.3062
COC(=O)[C@@H]1Cc2ncn(C)c2CN1S(=O)(=O)c1cccs1 [CBK288992] | 86.809
CC(C)Nc1cncc(SCCN(C)C)n1 [CBK105292] | 101.167
C#CCNC(=O)C1CCN(c2nc3ccccc3n2C)CC1 [CBK283956] | 80.661
O=C(NCCc1cccnc1)C1CCCN(c2nc3c(-c4ccccc4)csc3c(=O)[nH]2)C1 (stereo not drawn) [CBK215495] | 91.9156
Cc1ccc(C)c(NC(=O)C(Cc2ccccc2)N2C(=O)c3cc(Cl)c(Cl)cc3C2=O)c1 (stereo not drawn) [CBK264232] | 97.7744
Cc1cc(NS(=O)(=O)c2ccc(Br)cc2C(F)(F)F)n(C)n1 [CBK067255] | 93.5834
COc1cccc(NC(=O)C2CN(S(=O)(=O)c3ccccc3)CCN2S(=O)(=O)c2ccccc2)c1 (stereo not drawn) [CBK262694] | 102.288
Cc1ccc(C(=O)NNC(=O)/C=C\C(=O)O)cc1 [CBK261842] | 102.951
COc1cccc(OCC(O)CN(C)S(=O)(=O)O)c1 (stereo not drawn) [CBK027121N] | 111.721

SMILES | % of control remaining
O=C(O)c1ccc2c(c1)C(=O)N(C1=NCCS1)C2=O [CBK021809] | 115.831
O=S(=O)(Nc1cccc(-c2cnco2)c1)c1ccc(Br)cc1C(F)(F)F [CBK067118] | 102.884
Cc1noc(C)c1S(=O)(=O)Nc1ccccc1C(=O)O [CBK042371] | 87.0994
CC(=O)c1c(C(C)=O)c(C)n(-c2ccc(C(=O)O)cc2)c1C [CBK287036] | 76.3343
O=C(c1[nH]c2ccccc2c1NS(=O)(=O)Cc1ccccc1[N+](=O)[O-])N1CCOCC1 [CBK050079] | 99.2127
Cc1ccccc1-c1ccc(C(=O)NC2CCCCC2)c(NCc2cccnc2)n1 [CBK076159] | 90.9505
Fc1ccc(COc2ccc(Cl)cc2CNCc2ccccn2)cc1 [CBK269899C] | 97.2005
COC(=O)CCSc1nc(C)nc2c1c(=O)n(C)c(=O)n2CC(C)C [CBK305891] | 31.048
CN(C)c1ccc(-c2noc([C@@H]3CCCN3C)n2)cn1 [CBK288902] | 99.3908
CC(NC(=O)CCc1cn(C)c2ccccc12)c1ccccn1 (stereo not drawn) [CBK281889] | 80.3094
CCN(CC)S(=O)(=O)c1csc(C(=O)Nc2cccc([N+](=O)[O-])c2)c1 [CBK264505] | 109.766
Cc1cc(=O)oc2cc(OC(=O)C(Cc3ccccc3)N3C(=O)c4ccccc4C3=O)ccc12 (stereo not drawn) [CBK033943] | 97.3804
COC(=O)c1ccc(NC(=O)CN(c2ccc(F)c(Cl)c2)S(C)(=O)=O)cc1 [CBK267657] | 88.7488
Cc1cccc(-n2c(C#N)c(O)c3ccccc32)c1C [CBK115319] | 89.1827
COc1ccc(C(NC(=O)Cn2cccnc2=O)C2CC(O)C2)cn1 (stereo not drawn) [CBK307527] | 64.1332
Cc1ccccc1OCCNS(=O)(=O)c1cccc([N+](=O)[O-])c1 [CBK264195] | 126.912
CC(=O)Nc1cc(Cl)ccc1OS(=O)(=O)c1ccc(Cl)cc1 [CBK264992] | 88.9608
COC(=O)c1ccccc1NC(=O)CNS(=O)(=O)c1ccc(C)cc1 [CBK266000] | 128.538
COc1ccc(CC(=O)NC(CCSC)c2nc3ccccc3[nH]2)cc1 (stereo not drawn) [CBK306050] | 37.989
